From paper PMC4336329 (PLoS ONE, 2015)
The campaign covered roughly 310,000 compounds. About 2,200 (0.71%) showed an effect of 50% or more. Effects have a minus sign here. The list shows a part of the results.

molecular target: human ether-à-go-go-related gene (hERG) potassium channel (human, UniProt Q12809); experiment: primary screen, population patch clamp on CHO cells stably expressing hERG
Sequence (Q12809 whole entry, looked up): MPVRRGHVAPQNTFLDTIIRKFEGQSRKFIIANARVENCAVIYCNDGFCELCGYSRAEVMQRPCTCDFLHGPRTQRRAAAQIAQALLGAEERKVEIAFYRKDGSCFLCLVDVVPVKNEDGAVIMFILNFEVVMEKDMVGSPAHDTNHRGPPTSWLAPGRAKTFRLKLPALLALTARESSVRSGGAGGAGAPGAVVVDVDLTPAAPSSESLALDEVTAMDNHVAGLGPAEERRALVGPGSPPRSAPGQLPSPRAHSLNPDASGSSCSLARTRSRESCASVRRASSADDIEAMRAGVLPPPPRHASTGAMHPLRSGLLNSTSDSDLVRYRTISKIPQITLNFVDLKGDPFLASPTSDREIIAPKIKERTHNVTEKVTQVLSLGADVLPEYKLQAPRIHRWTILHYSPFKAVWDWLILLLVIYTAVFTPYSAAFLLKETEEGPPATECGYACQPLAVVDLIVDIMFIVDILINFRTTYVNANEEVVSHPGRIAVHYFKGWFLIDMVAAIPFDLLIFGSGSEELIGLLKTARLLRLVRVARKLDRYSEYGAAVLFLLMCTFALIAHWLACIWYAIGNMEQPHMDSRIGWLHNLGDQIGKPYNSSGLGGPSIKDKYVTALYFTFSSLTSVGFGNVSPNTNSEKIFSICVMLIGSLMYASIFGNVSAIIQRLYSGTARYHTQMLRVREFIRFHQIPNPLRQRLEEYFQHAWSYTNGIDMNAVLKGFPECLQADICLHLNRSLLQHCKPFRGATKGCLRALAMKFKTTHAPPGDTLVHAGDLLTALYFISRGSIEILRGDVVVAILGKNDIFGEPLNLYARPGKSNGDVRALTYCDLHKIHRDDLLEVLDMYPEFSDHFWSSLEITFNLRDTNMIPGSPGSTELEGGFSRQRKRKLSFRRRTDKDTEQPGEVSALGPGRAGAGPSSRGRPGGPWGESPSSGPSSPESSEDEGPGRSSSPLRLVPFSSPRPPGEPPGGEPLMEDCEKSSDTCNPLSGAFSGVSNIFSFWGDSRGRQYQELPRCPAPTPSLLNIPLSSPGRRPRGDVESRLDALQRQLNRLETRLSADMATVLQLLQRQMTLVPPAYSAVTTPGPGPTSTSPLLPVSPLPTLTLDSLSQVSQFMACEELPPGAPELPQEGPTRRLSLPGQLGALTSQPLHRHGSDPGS

Row | SMILES | hERG current change (%, negative = inhibition) at 1uM [%]
1 | COc1ccc(C2(c3ccc(OC)cc3)NC(=O)N(CC(=O)Nc3cc(C)ccc3OC)C2=O)cc1 | 8.47
2 | COc1cc(OC)cc(-n2nnnc2SCC(=O)NCc2cccs2)c1 | 7.67
3 | Oc1nc(Nc2ccc(F)cc2)sc1/C=C1\C=Nc2ccccc21 | 8.9
4 | O=C(O)COCC(=O)NCc1csc2ccccc12 | 8.69
5 | CN(C)S(=O)(=O)c1ccc(C(=O)Nc2nnc(Cc3ccccc3)s2)cc1 | 6.04
6 | CCC(Sc1nc(=O)cc(N)n1-c1cccc(C)c1)C(=O)Nc1cc(C)on1 (centres unmarked) | -0.277
7 | O=C(c1ccc(Br)o1)N1CCN(Cc2ccc3c(c2)OCO3)CC1 | -4.49
8 | CC(=O)c1ccc(N2CCN(c3ccc(S(=O)(=O)NCCN(C)C)cc3[N+](=O)[O-])CC2)cc1 | -4.69
9 | O=C(CN1C(=O)C2C3C=CC(C3)C2C1=O)OCC(=O)c1ccc([N+](=O)[O-])cc1 (centres unmarked) | 8.41
10 | Cc1ccc2nc(-c3ccc(NC(=S)NC(=O)CC(C)C)cc3)sc2c1 | 6.59
11 | CN(C)C(=O)OCc1c(-c2ccccc2)ncc2ccccc12 | 11.3
12 | CCOc1cc(C)c(S(=O)(=O)Nc2ccc3cn[nH]c3c2)cc1C | 19.3
13 | CC(C)OC(=O)CCCCCN1C(=O)CSC1=S | 6.02
14 | CCCc1cc(=O)oc2cc(OCC(=O)N3CCN(Cc4ccc5c(c4)OCO5)CC3)ccc12 | 4.76
15 | O=C(c1cccs1)N1CCN(C/C=C/c2ccccc2)CC1 | -16.9
16 | CCc1nc(NCC2CCCO2)c(C#N)c2c1COC(C)(C)C2 (centres unmarked) | 5.51
17 | COC(=O)c1c(NC(C)=O)sc(Cc2ccccc2)c1C | 10.7
18 | COc1ccc(C(=O)O/N=C(\N)c2ccccc2)cc1OC | 12.3
19 | O=C(C1CCCN(S(=O)(=O)c2ccc([N+](=O)[O-])cc2)C1)N1CCCCC1 (centres unmarked) | -23.1
20 | NC(=O)c1nsc(C(=O)N(c2cccc(F)c2)C(C(=O)NCc2ccccc2)c2ccc(O)cc2)c1N (centres unmarked) | 4.16
21 | CCC(=O)N1CCc2cc(Br)cc(S(=O)(=O)N3CCN(C(=O)c4ccco4)CC3)c21 | 6.57
22 | CC(C)(C)C(=O)N1CCC(O)(CS(=O)(=O)c2ccc(Cl)c(Cl)c2)CC1 | 14.1

Row | SMILES | hERG current change (%, negative = inhibition) at 1uM [%]
23 | C=C1CCC2[C@](C)(CO[C@@H]3O[C@H](CO)[C@@H](O)[C@H](O)[C@H]3O)CCC[C@@]2(C)[C@@H]1CCC1=CCOC1=O (some centres unmarked) | 15.4
24 | Cc1cccc(C(=O)Nc2ccnc(-c3ccncc3)n2)c1 | -7.53
25 | N#CC1=C(N)NC(SCC(=O)Nc2ccccc2)=C(C#N)C12CCCCC2 | 3.48
26 | CCOc1cc2[nH]c(=S)n(C3CC3)c(=O)c2cc1OCC | 10.2
27 | COc1cc(NC(=O)c2ccc([N+](=O)[O-])cc2)ccc1NC(=O)C(C)C | 6.67
28 | COc1ccccc1C(CNC(=O)c1cccc(S(=O)(=O)Nc2ccc(F)cc2)c1)N(C)C (centres unmarked) | 3.93
29 | Cc1cc(C)cc(NC(=O)NCc2c(-c3ccccc3)noc2C)c1 | 12.5
30 | O=C(CCN1CCN(c2ccccc2)CC1)N/N=C/c1ccccc1OC(F)F | -2.32
31 | Fc1ccc(NC(=S)NCCc2ccccn2)cc1 | 8.99
32 | COc1cccc(C2CN(c3ccc(F)cc3F)N=C2c2cccs2)c1OC (centres unmarked) | 19.1
33 | COc1ccccc1CN1C(=O)CN(C2CCCCCC2)C(=O)C1c1ccc(F)cc1 (centres unmarked) | -15.4
34 | O=C(c1ccco1)N1CCN(c2c(-c3ccccc3)c3cc(Cl)ccc3[nH]c2=O)CC1 | 2.61
35 | COc1cccc(-n2nnnc2SCC(=O)NCc2ccco2)c1 | 1.76
36 | CC1Cc2ccccc2N1C(=O)C12CCC(C)(C(=O)C1)C2(C)C (centres unmarked) | 12
37 | Cc1cc(C(F)F)n2nc(C(=O)Nc3ccc(F)cc3F)nc2n1 | 4.36
38 | CCc1ccc(NC(=O)c2cc(C)no2)cc1 | -11.4
39 | CCOc1ccc(-c2c(=O)n(OCc3ccccc3Br)c3ccccc3[n+]2[O-])c(OCC)c1 | 9.85
40 | COCCCn1c2nc3ccccc3nc2c2c(=O)n(CC3CCCO3)cnc21 (centres unmarked) | -20.5
41 | CSc1cccc(NC(=O)c2nnn(CC(=O)Nc3cc(C)cc(C)c3)c2N)c1 | 19.2
42 | Cc1cc(C)cc(NC(=O)c2cccc(NC3=NC4CS(=O)(=O)CC4S3)c2)c1 (centres unmarked) | 18.7
43 | COc1ccc(SCCCn2c(=O)c3c(ncn3C)n(C)c2=O)cc1 | -0.685
44 | CN1C(=O)c2ccccc2N(C)C1c1cccc(O)c1 (centres unmarked) | 11.4

Row | SMILES | hERG current change (%, negative = inhibition) at 1uM [%]
45 | O=C(O)c1ccc(N2C(=O)CCCC2=O)cc1 | 11.6
46 | CCCc1cc(-c2[nH]ncc2-c2ccc(C(=O)OCC)o2)c(O)cc1O | 10.3
47 | CCCN1CCN(C(=O)c2ccc(CS(=O)c3ccc(Cl)cc3)o2)CC1 (centres unmarked) | 4.79
48 | C/C(=N\NC(=O)c1c(Cl)cnn1C)c1ccc(NC(=O)c2ccc(Br)o2)cc1 | 3.29
49 | N#Cc1c(N)nc(SCc2ccccc2)c(C#N)c1-c1ccco1 | -2.7
50 | COCCCNC(=O)/C(C#N)=C1\N=C(NC(=O)c2cccs2)c2ccccc21 | 4.63
51 | CCN(CC)C(=O)COC(=O)c1cc(-c2ccc(OC)cc2)nc2ccccc12 | 7.92
52 | CC(=O)N1CCN(S(=O)(=O)c2ccc(C)cc2)C1c1ccc(N(C)C)cc1 (centres unmarked) | 4
53 | O=Cc1c(N2CCN(c3ccccc3)CC2)nc2ccccn2c1=O | 2.26
54 | COc1ccc(S(=O)(=O)N[C@H](C(=O)N2CC[C@@]3(O)CCCC[C@H]3C2)c2ccccc2)cc1 | -2.39
55 | CC(=O)N1c2ccc(S(=O)(=O)NCC3CCC(C(=O)Nc4ncccc4C)CC3)cc2CC1C (centres unmarked) | -6.52
56 | CN1c2cccc3cccc(c23)N(C)C1c1cccs1 | 7.57
57 | COc1ccccc1N1CCN(C(=O)Nc2ccc(F)c(Cl)c2)CC1 | 8.22
58 | CCOC(=O)Nc1nnc(CCc2ccccc2)s1 | -2.65
59 | COc1ccc(S(=O)(=O)N2CCN(C(=O)c3cccs3)CC2)cc1 | -8.69
60 | CC1=C(C(N)=O)C(c2cccs2)n2ncnc2N1 (centres unmarked) | 6.48
61 | NNc1nc(Nc2ccc([N+](=O)[O-])cc2)nc(N2CCCCCC2)n1 | 21.7
62 | Cc1ccc(C)c(Oc2nnnn2-c2ccccc2)c1 | 7.58
63 | COc1ccc(CC(=O)NC(CC(=O)O)c2cccc([N+](=O)[O-])c2)cc1 (centres unmarked) | 3.56
64 | Cc1ccc(OCc2cc(C(=O)N3CCN(C4CCCCC4)CC3)no2)cc1C | 11.7
65 | O=C1[C@H]2[C@@H](c3ccc(F)cc3)N3C(=O)N(c4cccc(Cl)c4)C(=O)[C@@]3(Cc3ccccc3)[C@H]2C(=O)N1C1CCCCC1 | 10.9
66 | O=C(Nc1ccccc1F)C1CCCN(S(=O)(=O)c2ccc(-n3cnnn3)cc2)C1 (centres unmarked) | 4.41

Row | SMILES | hERG current change (%, negative = inhibition) at 1uM [%]
67 | O=C(CSCc1ccccc1Br)N/N=C/c1ccccc1C(=O)O | 18.4
68 | Cc1ccc(CN2CCC(=O)N2)cc1 | 18.5
69 | O=C(COC(=O)/C=C/c1cccc(Cl)c1)NC1CCCC1 | 10.1
70 | COc1ccc(CCNC(=O)C2CC(=O)N(CCc3ccccc3)C2)cc1OC (centres unmarked) | 17.2
71 | Cc1ccsc1C(=O)Nc1cccc(-n2cnnn2)c1 | 5.88
72 | CC(=O)/C(N=Nc1ccc(-n2ccc(C(F)(F)F)n2)cc1)=C(\C)O | 9.6
73 | O=C(Nc1ccccc1C(=O)Nc1nnc(C(F)(F)F)s1)c1ccccc1 | 11
74 | O=C(Oc1ccccc1Cl)C1CCN(C(=O)c2ccc(F)cc2)CC1 | 3.19
75 | O=C(O)c1ccccc1SCC(=O)N1CCc2ccccc21 | 3.04
76 | Cc1cccc(NC(=O)CN2C(=O)N/C(=C/c3ccc(C)o3)C2=O)c1 | 10.4
77 | O=C(NCCN1CCCC1)C1CC(=O)N(C2CCCCC2)C1 (centres unmarked) | 13.8
78 | Fc1ccc(Nc2nc(-c3ccncc3)nc3ccccc23)cc1F | 5.14
79 | Cc1c([N+](=O)[O-])cc(C(=O)N2CCOCC2)cc1[N+](=O)[O-] | 7.34
80 | Cc1cc(Nc2cccc(C)c2C)n2nc(C)nc2n1 | -3.1
81 | CCOc1ccc(N2CC(C(=O)Nc3ncccc3C)CC2=O)cc1 (centres unmarked) | 4.83
82 | CC(=O)N(CCS(=O)(=O)c1ccc(Cl)cc1)Cc1cccs1 | 6.56
83 | Cc1ccc(S(=O)(=O)N(C)C2(C)CCS(=O)(=O)C2)cc1 (centres unmarked) | -2
84 | O=[N+]([O-])CC1(n2nc3ccccc3n2)CCCCC1 | 7.5
85 | C=CCNc1nc(C(=O)OCC(=O)c2ccc(F)cc2)cs1 | 1.73
86 | CCOC(=O)C1CCCN(c2c(NCCCN(CC)c3cccc(C)c3)c(=O)c2=O)C1 (centres unmarked) | 5.21
